According to article PMC6438586:
Results are given in words; binding and its absence hold for the method and conditions named. In cells and extracts the contact can be indirect. Some binding calls cover weakened binding; strength is not graded here. Blank lines part the entries; values can stand above or below the substance they belong to.

Sequences of proteins named here, by UniProt entry; tags and fusion partners are left off.
UniProt P62491: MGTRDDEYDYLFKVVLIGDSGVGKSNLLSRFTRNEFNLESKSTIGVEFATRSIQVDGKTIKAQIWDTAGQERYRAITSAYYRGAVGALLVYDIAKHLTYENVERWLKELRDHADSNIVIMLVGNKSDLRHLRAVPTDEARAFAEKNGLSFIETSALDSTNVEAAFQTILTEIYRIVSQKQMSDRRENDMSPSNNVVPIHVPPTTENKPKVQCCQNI
UniProt Q8IUC6: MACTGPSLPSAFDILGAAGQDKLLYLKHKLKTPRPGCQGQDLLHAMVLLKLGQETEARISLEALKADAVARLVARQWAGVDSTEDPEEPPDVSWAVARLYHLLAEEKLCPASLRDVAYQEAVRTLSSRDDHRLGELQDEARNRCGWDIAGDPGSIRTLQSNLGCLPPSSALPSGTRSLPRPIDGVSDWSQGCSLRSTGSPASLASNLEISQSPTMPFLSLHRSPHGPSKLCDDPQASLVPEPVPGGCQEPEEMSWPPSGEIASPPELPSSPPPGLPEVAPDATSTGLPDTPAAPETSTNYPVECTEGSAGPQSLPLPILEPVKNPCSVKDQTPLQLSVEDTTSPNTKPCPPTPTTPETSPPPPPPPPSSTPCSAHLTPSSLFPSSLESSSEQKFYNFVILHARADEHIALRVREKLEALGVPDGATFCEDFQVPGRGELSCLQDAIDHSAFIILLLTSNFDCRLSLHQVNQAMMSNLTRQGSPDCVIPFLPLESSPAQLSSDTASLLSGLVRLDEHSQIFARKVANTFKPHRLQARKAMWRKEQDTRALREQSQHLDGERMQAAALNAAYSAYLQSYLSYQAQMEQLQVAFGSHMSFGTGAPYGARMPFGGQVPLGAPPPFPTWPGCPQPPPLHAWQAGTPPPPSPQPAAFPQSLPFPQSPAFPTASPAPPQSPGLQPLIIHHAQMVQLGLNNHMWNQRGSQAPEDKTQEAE

What was measured:
[1] = target: FLAG-FIP2 (1–512, wild type) (human) (UniProt Q7L804); assay: co-IP; anti-FLAG M2 agarose, 4 h at 4 °C, lysates of HEK293T cells co-expressing FLAG-tagged and EGFP-, EYFP-, ECFP- or mCherry-tagged proteins; lysis buffer 150 mM NaCl, 50 mM TrisHCl pH 8.0, 1 mM EDTA, 1% NP-40; immunoblot; some samples treated with NS RNA or Rab11a and Rab11b siRNA
TRAM 1–100-FLAG (human) = TRAM 1–100-FLAG (human) (UniProt Q86XR7); assay: as above
TRAM 1–90-FLAG (human) = TRAM 1–90-FLAG (human) (UniProt Q86XR7); assay: as above
TRAM-FLAG (human) = TRAM-FLAG (human) (UniProt Q86XR7); assay: as above
TRAM 1–79-FLAG (human) = TRAM 1–79-FLAG (human) (UniProt Q86XR7); assay: as above
TRAM 1–68-FLAG (human) = TRAM 1–68-FLAG (human) (UniProt Q86XR7); assay: as above
TRAM 1–120-FLAG (human) = TRAM 1–120-FLAG (human) (UniProt Q86XR7); assay: as above
[2] = target: TRIF-related adaptor molecule (TRAM), endogenous (human (endogenous in THP-1 and primary human macrophages)) (UniProt Q86XR7); assay: co-IP; endogenous proteins; rabbit anti-TICAM2/TRAM (H-85) coupled to Dynabeads M-270 Epoxy, cleared lysates of primary human macrophages stimulated with E. coli bioparticles, 2 h at 4 °C; immunoblot
[3] = target: TRIF-related adaptor molecule (TRAM), endogenous (human (endogenous in THP-1 and primary human macrophages)) (UniProt Q86XR7); assay: co-IP; endogenous proteins; rabbit anti-TICAM2/TRAM (H-85) coupled to Dynabeads M-270 Epoxy, cleared lysates of THP-1 cells stimulated with E. coli bioparticles, 2 h at 4 °C; immunoblot
[4] = target: FLAG-FIP2 193–512 (human) (UniProt Q7L804); assay: co-IP; anti-FLAG M2 agarose, 4 h at 4 °C, lysates of HEK293T cells co-expressing FLAG-tagged and EGFP-, EYFP-, ECFP- or mCherry-tagged proteins; lysis buffer 150 mM NaCl, 50 mM TrisHCl pH 8.0, 1 mM EDTA, 1% NP-40; immunoblot; some samples treated with NS RNA or Rab11a and Rab11b siRNA
[5] = target: FLAG-FIP2 129–512 (human) (UniProt Q7L804); assay: as above
FLAG-FIP2 1–192 (human) = FLAG-FIP2 1–192 (human) (UniProt Q7L804); assay: as above
FLAG-FIP2 I481E (human) = FLAG-FIP2 I481E (human) (UniProt Q7L804); assay: as above

- binding [1]: binds
Substance: CFP-Rab11a (from UniProt P62491 1-216)

- binding (TRAM 1–100-FLAG (human)): binds
- binding (TRAM 1–90-FLAG (human)): binds weakly
- binding (TRAM-FLAG (human)): binds
- binding (TRAM 1–79-FLAG (human)): no binding
- binding (TRAM 1–68-FLAG (human)): no binding
- binding (TRAM 1–120-FLAG (human)): binds
Substance: EGFP-FIP2 (from UniProt Q7L804 1-512)

- binding [2]: binds
- binding [3]: binds
Substance: Rab11 family interacting protein 2 (FIP2), endogenous (from UniProt Q7L804 1-512)

- binding [3]: binds
Substance: TIR-domain-containing adapter-inducing interferon-β (TRIF), endogenous (from UniProt Q8IUC6 1-712)

- binding [4]: no binding
- binding [5]: binds
- binding (FLAG-FIP2 1–192 (human)): binds
- binding [1]: binds
- binding (FLAG-FIP2 I481E (human)): binds
Substance: TRAM-YFP (from UniProt Q86XR7-1 1-235)

- binding (FLAG-FIP2 I481E (human)): no binding
Substance: mCherry-Rab11a (from UniProt P62491 1-216)
